The values that follow come from PMC6919601, “Identification of Plasmodium dipeptidyl aminopeptidase allosteric inhibitors by high throughput screening” (PLoS ONE, 2019).

In all, about 110,000 compounds went through this assay and about 230 (0.21%) showed an effect of 50% or more. The list shows a part of the results.
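Further: 30 min substrate incubation versus DMSO and 10 µM JCP410 controls.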

In the assay the target is DPAP1 (Plasmodium falciparum, UniProt Q8IIJ9). As to the kind of experiment: primary screen, percent inhibition; read by cleavage of a fluorogenic dipeptide substrate; higher = more effect of the substance. Details: species or system P. falciparum D10 trophozoite lysates; single well.
Sequence of DPAP1 (Q8IIJ9 whole entry, looked up): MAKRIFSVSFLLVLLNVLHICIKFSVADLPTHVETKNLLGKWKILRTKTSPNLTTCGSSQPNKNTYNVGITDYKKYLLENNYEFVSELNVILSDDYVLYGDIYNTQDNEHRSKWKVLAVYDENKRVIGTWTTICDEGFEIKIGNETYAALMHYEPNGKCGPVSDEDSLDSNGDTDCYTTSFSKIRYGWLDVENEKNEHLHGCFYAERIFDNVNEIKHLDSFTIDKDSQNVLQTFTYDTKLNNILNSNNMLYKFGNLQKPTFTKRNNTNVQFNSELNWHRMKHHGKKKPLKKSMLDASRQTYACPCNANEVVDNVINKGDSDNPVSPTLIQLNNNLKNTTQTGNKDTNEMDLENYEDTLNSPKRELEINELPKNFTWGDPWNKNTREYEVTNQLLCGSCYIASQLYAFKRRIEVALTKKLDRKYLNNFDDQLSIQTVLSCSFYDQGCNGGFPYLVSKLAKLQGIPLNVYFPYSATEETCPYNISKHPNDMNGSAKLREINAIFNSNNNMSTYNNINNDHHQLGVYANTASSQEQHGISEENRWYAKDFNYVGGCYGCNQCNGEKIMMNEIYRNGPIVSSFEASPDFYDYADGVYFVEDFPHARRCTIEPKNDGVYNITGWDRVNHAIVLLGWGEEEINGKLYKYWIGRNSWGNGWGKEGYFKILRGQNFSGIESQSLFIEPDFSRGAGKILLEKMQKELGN
Regarding `COc1cc2c(cc1OC)/C(=C/CN1C(=O)CCC1O)CCS2` (stereo not shown), the “% Inhibition @ 10 uM” value is 0.235%.
Take `C=CCNC(=O)CN(c1cccc(OC)c1)S(=O)(=O)c1ccc(C)cc1`: the “% Inhibition @ 10 uM” value is listed as 5.29%.
Turning to `CCOC(=O)c1c(NC(=O)Cc2coc3ccc(OC)cc23)sc(C)c1C`, the “% Inhibition @ 10 uM” value was determined as 3.66%.
For `CC(C(=O)NCc1ccccc1)N1C(=O)C2CC=C(Cl)CC2C1=O` (stereo not shown), the “% Inhibition @ 10 uM” value was 5.54%.
For `COc1ccccc1C(=O)Nc1cccc(NC(=O)c2ccccc2OC)c1` the value was -4.43%.
For `Cc1ccccc1CC1[Se]C(N)=NC1=O` (stereo not shown) the value was 1.03%; for `Cc1ccc(-n2nc(C)c3c(C)cc(=O)n(CC(=O)NCCc4ccccc4)c32)cc1`, 3.66%.
`Cc1ccc(CS(=O)(=O)CCC(=O)N2CCc3ccccc3C2)cc1`: the “% Inhibition @ 10 uM” value is recorded as 2.18%.
Next, `CCN(Cc1ccccc1)C(=O)Cn1ncc2c3cc(C)ccc3nc-2c1O`: 6.5%.
For `CC(CNc1cnn(C23CC4CC(CC(C4)C2C(=O)O)C3)c(=O)c1Cl)c1ccccc1` (stereo not shown) the value was 1.15%; for `CCCCOc1ccc(C(=O)OC(C)CN(C)C)cc1` (stereo not shown), -0.0735%.
Next, `Cn1cccc1/C=N/n1c(S)nnc1-c1ccccc1`: 4.18%.
For the compound `COc1cccc(/C=C2\SC(N3CCCC(C)C3)=NC2=O)c1OC` (stereo not shown), the “% Inhibition @ 10 uM” value was 3.72%.
Next, `Cc1cc(C)c(Cc2c(C)cc(C)c(/C=C(\C#N)C(N)=O)c2C)c(C)c1/C=C(/C#N)C(N)=O`: -3.38%.
Turning to `C=CCn1c(=N)c(C(=O)NCCN2CCOCC2)cc2c(=O)n3ccccc3nc21`, the “% Inhibition @ 10 uM” value is recorded as -3.27%.
Next, `CC(=O)Nc1ccc(S(=O)(=O)Nc2cccc(C)c2)cc1`: -6.22%.
Next, `COc1ccc(/C=C/C(=O)NC2CCCCCC2)cc1OC`: 3.48%.
For the compound `COc1ccc(CN2CCN(c3ccc([N+](=O)[O-])cc3)CC2)c(C)c1C`, the “% Inhibition @ 10 uM” value came out at 7.8%.
`Cc1cc(C)c(S(=O)(=O)Nc2ccccc2C(=O)N2CCCC2)c(C)c1`: the “% Inhibition @ 10 uM” value was 4.05%.
For `CCO/C(O)=C(\C#N)c1nc(O)nc2ccccc12` the value was -3.33%.
In the case of `CC1=CC(=C2C(=O)c3ccccc3C2=O)C=C(C)N1Cc1ccccc1`, the “% Inhibition @ 10 uM” value was 7.05%.
With `CCc1ccc(-c2cn3c(n2)sc2cc(C(=O)NCCCN4CCCC4=O)ccc23)cc1`, the “% Inhibition @ 10 uM” value is recorded as 2.73%.
Next, `Cc1ccc(C)c(OCC(=O)Nc2nccs2)c1`: -0.95%.
Take `CCCN1C/C(=C\c2ccc(N(C)C)cc2)C(=O)/C(=C/c2ccc(N(C)C)cc2)C1`: the “% Inhibition @ 10 uM” value stood at 1.63%.
For `O=C(NCc1ccccc1)c1ccc2c(c1)C(=O)N(Cc1cccnc1)C2=O` the value was -0.132%; for `COc1ccc(CC(=O)Nc2sc3c(c2C#N)CCCCC3)cc1OC`, -3.19%; for `CC(=O)Nc1ccc(NC(=O)c2ccc(C(C)(C)C)c(Br)c2)cc1`, -11.6%.
`O=C(CN1C(=O)C2C3C=CC(C3)C2C1=O)NC1CCCc2ccccc21` (stereo not shown): the “% Inhibition @ 10 uM” value stood at 1.26%.
For `COc1ccccc1C1CC(=O)Nc2cc3c(cc21)OCCO3` (stereo not shown) the value was 1.93%.
For `Cc1ccc(-c2csc(NC(=O)c3ccccc3Br)n2)cc1` the value was 4.54%; for `CCOP(C)(=O)CN1CCOCC1` (stereo not shown), -6.52%; for `O=C(CC(c1ccccc1)c1ccccc1)NCCn1ccc2ccccc21`, -4.16%.
Next, `C=CCN(CC(=O)Nc1c(C)cccc1CC)C(=O)SCC`: 3.56%; `Cn1c(=O)c2c(ncn2CC(O)CN2CCCC2)n(C)c1=O` (stereo not shown): -6.67%.
For the compound `Cc1ccc2nc(C)c3c(c2c1)OC(C)C3` (stereo not shown), the “% Inhibition @ 10 uM” value turned out to be 2.65%.
Next, `Cc1cc(C)c2c(n1)SCC(=O)N2CCCC(=O)NCc1ccco1`: 4.22%; `CCNC(=S)NCCc1c(C)[nH]c2ccc(F)cc12`: -2.16%.
`O=S(=O)(c1ccccc1)c1cnc2ccccc2c1NCc1ccccc1`: the “% Inhibition @ 10 uM” value is -8.38%.
Next, `CN(C)C(c1ccccc1)c1nnnn1C(/C=C\c1ccc(Cl)cc1Cl)C(C)(C)C` (stereo not shown): 2.5%; `COC(=O)c1ccc(C2C(C(=O)c3ccccc3)C(C)Nc3nc4ccccc4n32)cc1` (stereo not shown): 2.7%.
Next, `O=C(CN1CCOCC1)NC1c2ccccc2CSc2ccccc21` (stereo not shown): -1.91%.
For `CN(Cc1ccccc1)C(=O)CNC(=O)Cn1ccc2ccccc2c1=O` the value was -2.49%; for `CSc1ccc(C2C3=C(O)CCCC3=NC(C)=C2C(=O)Nc2ccccn2)cc1` (stereo not shown), 2.48%.
For the compound `Cc1ccc(S(=O)(=O)c2cnc3ccccc3c2N2CCOCC2)cc1C`, the “% Inhibition @ 10 uM” value was -8.57%.
In the case of `COc1ccccc1NC(=O)c1sc(NC(=O)Cc2cccs2)c(C#N)c1C`, the “% Inhibition @ 10 uM” value is recorded as -6.36%.
Next, `COc1ccc(C2CC(=O)N(C)C3=C2C(=O)CC(C)(C)C3)c(OC)c1` (stereo not shown): -2.84%; `CC1=C(C#N)C(c2ccc3c(c2)OCO3)C2=C(O)CC(C)(C)CC2=N1` (stereo not shown): -2.53%; `Cc1ccc(-c2nnc(C3CCN(S(=O)(=O)c4ccc(Br)s4)CC3)o2)cc1`: 5.53%.
For `O=C(O)CSc1cccc2c(SCC(=O)O)cccc12` the value was 1.24%; for `O=C(O)COc1ccccc1/C=C1\SC(Nc2ccc(Br)cc2)=NC1=O`, 24%.
Next, `CCN(CC)CCN(C)C/C(C)=C/c1ccccc1`: -4.75%; `Cc1ccc(C2C(=O)N(C3CCCC3)CC(=O)N2CCC2=CCCCC2)cc1` (stereo not shown): -4.06%; `COc1ccc(Cl)cc1N(CC(=O)Nc1ccccc1C)S(C)(=O)=O`: -7.23%.
As for `Clc1ccc(CN2CCN(C/C=C/c3ccccc3)CC2)c(Cl)c1`, the “% Inhibition @ 10 uM” value is given as -0.192%.
With `CC1(C)CC(CC(=O)O)(c2ccccc2)CCO1` (stereo not shown), the “% Inhibition @ 10 uM” value is listed as 2.62%.
Consider `Cc1ccc2c(c1)c1c(n2C)C(C#N)CCC1` (stereo not shown), for which the “% Inhibition @ 10 uM” value is recorded as -3.48%.
Next, `CCN(CC)C(=O)Cn1ncc2c3ccccc3n(Cc3c(C)cc(C)cc3C)c2c1=O`: 1.8%; `FC(F)(F)c1cccc(N2CCN(Cc3ccccc3Br)CC2)c1`: -1.92%.
For `O=C1N=C(c2ccccc2)S/C1=C\c1cccs1` the value was 7.26%; for `O=C(c1ccc(Br)cc1)N1CCOCC1`, -7.52%; for `Cn1c(=O)c(-c2ccccc2)c2c3c(cccc31)C(=O)c1ccccc1-2`, -8.64%.
For the compound `N#CC1=C(N)SC(N)=C(C#N)C1c1cccnc1`, the “% Inhibition @ 10 uM” value is 0.731%.
Regarding `CCn1nc(C)c(C2C(C#N)=C(N)OC3=C2C(=O)CC(C)(C)C3)c1C` (stereo not shown), the “% Inhibition @ 10 uM” value is listed as 4.56%.
For the compound `O=C(NC1CCCCC1)C1CCN(S(=O)(=O)c2ccc3[nH]c(-c4ccccc4)nc3c2)CC1`, the “% Inhibition @ 10 uM” value is -5.92%.
